# The campaign covered roughly 350,000 compounds. About 31,000 (8.9%) were called active. The shares of active, inactive and inconclusive entries below differ from those in the screen. Calls come from the whole dose curve; as a rule, active = well fitted inhibition curve with a large enough effect; inconclusive = small, poorly fitted or top-dose-only effect; inactive = no such curve, though single readings can be large or run the other way. Potencies beside an inconclusive call are fits to weak or partial responses and may not hold up. Where a structure was tested more than once in an assay, its records may differ in their call.
# Target: Histone-lysine N-methyltransferase EHMT2 (Homo sapiens) (UniProt Q96KQ7)
# UniProt Q96KQ7, sequence (Q96KQ7 whole entry, looked up): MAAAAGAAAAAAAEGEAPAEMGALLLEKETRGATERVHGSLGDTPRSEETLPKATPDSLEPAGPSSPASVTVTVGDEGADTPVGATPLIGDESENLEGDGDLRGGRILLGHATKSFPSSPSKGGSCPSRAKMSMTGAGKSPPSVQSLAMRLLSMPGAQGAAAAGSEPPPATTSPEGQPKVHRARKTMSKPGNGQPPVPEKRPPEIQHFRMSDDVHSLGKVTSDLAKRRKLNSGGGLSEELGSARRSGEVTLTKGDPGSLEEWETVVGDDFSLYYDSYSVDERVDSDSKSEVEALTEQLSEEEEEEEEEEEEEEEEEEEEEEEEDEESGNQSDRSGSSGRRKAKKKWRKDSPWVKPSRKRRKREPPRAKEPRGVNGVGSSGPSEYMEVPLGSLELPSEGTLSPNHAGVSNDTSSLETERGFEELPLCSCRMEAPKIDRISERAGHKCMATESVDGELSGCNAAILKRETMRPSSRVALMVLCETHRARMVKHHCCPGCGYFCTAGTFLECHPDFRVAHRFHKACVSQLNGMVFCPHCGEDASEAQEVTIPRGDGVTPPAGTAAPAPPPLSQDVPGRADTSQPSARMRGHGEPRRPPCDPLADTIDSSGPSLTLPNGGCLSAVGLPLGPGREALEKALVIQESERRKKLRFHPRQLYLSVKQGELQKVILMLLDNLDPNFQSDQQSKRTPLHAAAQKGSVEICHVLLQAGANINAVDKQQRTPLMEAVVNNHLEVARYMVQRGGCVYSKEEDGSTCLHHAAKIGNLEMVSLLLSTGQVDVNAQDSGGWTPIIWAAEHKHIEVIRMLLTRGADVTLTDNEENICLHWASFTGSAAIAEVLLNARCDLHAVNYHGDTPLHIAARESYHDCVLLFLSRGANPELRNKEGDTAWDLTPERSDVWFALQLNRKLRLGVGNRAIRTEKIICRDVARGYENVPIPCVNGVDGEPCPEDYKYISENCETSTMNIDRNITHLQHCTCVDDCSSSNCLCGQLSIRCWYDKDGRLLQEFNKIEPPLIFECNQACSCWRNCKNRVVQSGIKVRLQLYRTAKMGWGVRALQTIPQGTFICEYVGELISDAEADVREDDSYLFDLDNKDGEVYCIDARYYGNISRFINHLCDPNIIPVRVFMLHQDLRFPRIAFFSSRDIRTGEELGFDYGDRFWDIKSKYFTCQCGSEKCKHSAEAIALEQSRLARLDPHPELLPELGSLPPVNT
# Assay: qHTS Assay for Inhibitors of Histone Lysine Methyltransferase G9a; note: nearly all actives have a fitted effect of over 75% in size
# Conditions: G9a H3K9 monomethylation, AlphaScreen, 2 h; activity, negative = inhibition: at 59 µM (top of the series) unless noted
# Procedure, shortened: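 Signal arises when biotinylated H3K9 peptide, once monomethylated, bridges streptavidin donor and antibody-captured acceptor beads. Enzyme at 20 nM was preincubated 15 min with test compounds; peptide 500 nM and SAM 20 uM then reacted for 2 h.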
# % is set by controls: 0 for no effect and ±100 for the full control effect; potency is the fitted concentration of half-maximal effect; tags give direction and shape of the fitted curve.
Structure (SMILES),Potency,"activity, negative = inhibition"
COc1ccccc1NCN1C(=O)CCC1=O,"inconclusive: 89.1 µM [inhibitor, single point]",
O=[N+]([O-])c1ccc(SCc2ccco2)cc1N1CCOCC1,active: 50.1 µM,
O=C(Cc1ccc(F)cc1)OCC(=O)c1cc2ccccc2o1,"inconclusive: 89.1 µM [inhibitor, single point]",
O=C(O)c1ccccc1NN=C1CCCCC1,active: 8.91 µM,
O=C1c2cccc3cc([N+](=O)[O-])cc(c23)C(=O)N1CCN1CCCC1,"inconclusive: 79.4 µM [inhibitor, single point]",
COc1ccccc1CN1CCNC(=O)C1CC(=O)NC1Cc2ccccc2C1 (stereo unspecified),"inconclusive: 50.1 µM [inhibitor, partial curve, poor fit]",
C#CCOCCOCCOCCNc1nc(N2CCN(C(=O)[C@H]([C@@H](C)O)n3cc(CCCCN)nn3)CC2)nc(N2CCN(C(=O)[C@H]([C@@H](C)CC)n3cc(CCCN=C(N)N)nn3)CC2)n1,active: 50.1 µM,
O=S(=O)(Nc1ccc(-n2cnnn2)cc1)c1cccc(F)c1,inactive,
COc1ccc(-c2cc3ccccc3n2CC(O)CNCCO)cc1 (stereo unspecified),active: 35.5 µM,
O=C(OCc1cccc(C(F)(F)F)c1)c1cc([N+](=O)[O-])ccc1N1CCOCC1,"inconclusive: 10 µM [inhibitor, partial curve]",
CCOC(=O)CSc1nc2c(cnn2-c2ccc(C)cc2)c(=O)[nH]1,"inconclusive: 56.2 µM [inhibitor, single point]",
CC(C(=O)NCc1ccccc1)N1Cc2ccccc2C1=O (stereo unspecified),inactive,
CC(C)CC(=O)NC(=S)Nc1ccc(S(=O)(=O)Nc2nccs2)cc1,"inconclusive: 39.8 µM [inhibitor, single point]",
CCOC(=O)C1(CCOc2ccccc2)CCN(Cc2ccc(O)c(OCC)c2)CC1,active: 79.4 µM,
O=C(NCc1ccco1)C1(c2ccc(Br)cc2)CCCC1,inactive,
Cc1csc2nc(COc3ccc(NC(=O)COc4ccccc4F)cc3)cc(=O)n12,"inconclusive: 35.5 µM [inhibitor, single point]",
O=C1C2C(c3ccccc3)C=CC(c3ccccc3)C2C(=O)N1c1ccccn1 (stereo unspecified),inactive,
O=C(/C=C/c1ccco1)NC(=S)Nc1ccccc1N1CCOCC1,"inconclusive: 39.8 µM [inhibitor, single point]",
O=C(c1cc([N+](=O)[O-])ccc1N1CCCCC1)N1CCCCC1,inactive,
CCOc1ccc(Oc2cc(C)nc(SC)n2)nn1,"inconclusive: 3.55 µM [inhibitor, full curve]",
CC(=O)N1CCc2cc(S(=O)(=O)NC3CCCCC3)ccc21,inactive,
Cc1ccc(NC(=O)Cn2cnc3c(oc4nc5c(cc43)COC(C)(C)C5)c2=O)cc1,inactive,
Cc1cccc(C(=O)OCC(=O)Nc2ccccc2C(=O)NC2CC2)c1,"inconclusive: 1 µM [inhibitor, single point]",
COc1ccc(CNc2ncnc3c2[nH]c2ccccc23)cc1,active: 50.1 µM,
CCCCCOC(=O)CSc1nc2sc3c(c2c(=O)n1Cc1ccccc1)CC(C)(C)OC3,inactive,
CC(=O)Nc1ccc(S(=O)(=O)Nc2cc(C)ccn2)cc1,active: 50.1 µM,

Structure (SMILES),Potency,"activity, negative = inhibition"
CCC(C)C(N)C(=O)O (stereo unspecified),,inactive: 4.29% [at 12.7 µM]
CN(C)CCN1C(=O)C(=O)/C(=C(/O)c2ccc3c(c2)OCCO3)C1c1ccccn1 (stereo unspecified),active: 31.6 µM,
CC(C)CCn1c(SCC(=O)Nc2ccccc2C(F)(F)F)nc2nccnc2c1=O,active: 6.31 µM,
CCOc1ccc(Nc2nc(Cc3nnc(SCC(N)=O)o3)cs2)cc1,inactive,
NCCCC(N)(C(=O)O)C(F)F (stereo unspecified),active: 7.08 µM,
Cc1sc2c(c1C)c(=O)n(-c1ccccc1)c(=O)n2CC(=O)c1ccc(Cl)cc1,inactive,
Cc1ccc(NC(=O)CSc2nnc3[nH]c(=O)cc(C)n23)cc1Cl,inactive,
COCCN(C(=O)CSCc1ccccc1)c1c(N)n(Cc2ccccc2)c(=O)[nH]c1=O,"inconclusive: 89.1 µM [inhibitor, single point]",
O=[N+]([O-])c1cc(-c2nc(-c3ccccc3)no2)ccc1N1CCCC1,inactive,
Cc1nc(-c2cccc(NS(=O)(=O)c3cccc4ccccc34)c2)cs1,"inconclusive: 3.16 µM [inhibitor, single point]",
CC1=NC(=O)C(N=Nc2ccccc2)N1c1ccccc1 (stereo unspecified),active: 8.91 µM,
COc1cccc2c(SCC(=O)N/N=C/c3ccc(O)c(O)c3)cc(C)nc12,active: 35.5 µM,
Cc1cccc(Nc2nc(-c3ccccc3)c3cc(C)ccc3n2)c1,inactive,
O=C(CSc1nc(-c2ccccc2)[nH]c1-c1ccccc1)Nc1ccc2c(c1)OCO2,active: 22.4 µM,
CC(=O)N=c1c(C#N)cc2c(=O)n3cccc(C)c3nc2n1Cc1ccco1,"inconclusive: 28.2 µM [inhibitor, partial curve, poor fit]",
Cc1cc(NS(=O)(=O)c2ccc(NC(=S)NC(=O)c3cccc(S(=O)(=O)N(C)C)c3)cc2)no1,active: 35.5 µM,
COc1cc(/C=N/c2oc(-c3ccccc3)cc2C#N)ccc1O,"inconclusive: 22.4 µM [inhibitor, single point]",
O=C(Nc1ccc(N2CCCCC2)cc1)c1cccnc1,"inconclusive: 1.78 µM [inhibitor, full curve, poor fit]",
Fc1ccc(Oc2nc(-c3ccccn3)nc3ccccc23)cc1,inactive,
Cc1ccc(-c2nc3ccccc3o2)cc1NC(=O)c1cccc2c(Cl)cccc12,inactive,
CCC(=O)N1c2ccccc2CC1C(=O)NCCN1CCN(c2cccc(C)c2C)CC1 (stereo unspecified),inactive,
CCOC(=O)C1(Cc2cccc(F)c2)CCN(Cc2ccc(COC)o2)CC1,"inconclusive: 89.1 µM [inhibitor, single point]",
Cc1cc(C)c([N+](=O)[O-])cc1NC(=O)CCSc1ccccc1Cl,inactive,
COc1cccc(/C=C2/CN(C)CC3=C2OC(N)=C(C#N)C3c2cccc(OC)c2)c1 (stereo unspecified),"inconclusive: 20 µM [inhibitor, single point]",
CCS(=O)(=O)C1=NSC2=NC(=O)/C(=C\c3ccc(OS(=O)(=O)c4ccccc4)cc3)C(=N)N21,active: 39.8 µM,
